Out of some 3,200 compounds screened, about 300 (9.4%) showed activity. The entries are a selection whose mix differs from that of the whole data set.
System: A673/TR/shEF
Assay: cell viability (LOESS-normalised, relative to median of negative controls) (log2 ratio); higher = more viable cells (less compound effect), active = hit call of the paper (over 3 MAD below the median)
Conditions: treatment time: 72 h
Outline: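 Viability of A673/TR/shEF Ewing sarcoma cells was determined by CellTiter-Glo luminescence. The cells, at 1,500 per well in 384-well plates, were grown with or without doxycycline from 24 h before compound addition to switch on EWS-FLI1 shRNA knockdown, then exposed for three days to library compounds at two or more concentrations or to DMSO controls. Signals were LOESS-corrected plate by plate, normalised to the negative-control median and log2-transformed.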

[1] = 0.025 µM, library screen: screen2, EWS-FLI1 expression: high (no doxycycline)
[2] = 0.025 µM, library screen: screen2, EWS-FLI1 expression: low (doxycycline-induced shRNA knockdown)
[3] = 0.103 µM, library screen: screen3, EWS-FLI1 expression: high (no doxycycline)
[4] = 0.103 µM, library screen: screen3, EWS-FLI1 expression: low (doxycycline-induced shRNA knockdown)
[5] = 0.25 µM, library screen: screen1, EWS-FLI1 expression: high (no doxycycline)
[6] = 0.25 µM, library screen: screen1, EWS-FLI1 expression: low (doxycycline-induced shRNA knockdown)
[7] = 0.25 µM, library screen: screen2, EWS-FLI1 expression: high (no doxycycline)
[8] = 0.25 µM, library screen: screen2, EWS-FLI1 expression: low (doxycycline-induced shRNA knockdown)
[9] = 0.308 µM, library screen: screen3, EWS-FLI1 expression: high (no doxycycline)
[10] = 0.308 µM, library screen: screen3, EWS-FLI1 expression: low (doxycycline-induced shRNA knockdown)
[11] = 0.926 µM, library screen: screen3, EWS-FLI1 expression: high (no doxycycline)
[12] = 0.926 µM, library screen: screen3, EWS-FLI1 expression: low (doxycycline-induced shRNA knockdown)
[13] = 2.5 µM, library screen: screen1, EWS-FLI1 expression: high (no doxycycline)
[14] = 2.5 µM, library screen: screen1, EWS-FLI1 expression: low (doxycycline-induced shRNA knockdown)
[15] = 2.5 µM, library screen: screen2, EWS-FLI1 expression: high (no doxycycline)
[16] = 2.5 µM, library screen: screen2, EWS-FLI1 expression: low (doxycycline-induced shRNA knockdown)
[17] = 2.8 µM, library screen: screen3, EWS-FLI1 expression: high (no doxycycline)
[18] = 2.8 µM, library screen: screen3, EWS-FLI1 expression: low (doxycycline-induced shRNA knockdown)
[19] = 8.3 µM, library screen: screen3, EWS-FLI1 expression: high (no doxycycline)
[20] = 8.3 µM, library screen: screen3, EWS-FLI1 expression: low (doxycycline-induced shRNA knockdown)
[21] = 25 µM, library screen: screen2, EWS-FLI1 expression: high (no doxycycline)
[22] = 25 µM, library screen: screen2, EWS-FLI1 expression: low (doxycycline-induced shRNA knockdown)
[23] = 25 µM, library screen: screen3, EWS-FLI1 expression: high (no doxycycline)
[24] = 25 µM, library screen: screen3, EWS-FLI1 expression: low (doxycycline-induced shRNA knockdown)
[25] = 25 µM, library screen: screen1, EWS-FLI1 expression: high (no doxycycline)

Measured: cell viability (log2)

S=c1nc[nH]c2nc[nH]c12
inactive: [1] 0.182 | [2] 0.0993 | [3] 0.0192 | [4] 0.0459 | [5] -0.0045 | [6] -0.00406 | [7] 0.161 | [8] 0.00291 | [9] 0.144 | [10] 0.158 | [11] 0.0964 | [12] 0.0595 | [14] 0.0219 | [15] -0.00564 | [16] 0.0787 | [17] 0.036 | [18] 0.0694 | [19] -0.147 | [20] 0.036 | [22] 0.0432 | [24] 0.056
active: [13] -0.186 | [21] -0.312 | [23] -0.314

CNC1(C)C2CCC(C2)C1(C)C (centres undefined)
inactive: [5] 0.132 | [6] -0.0497 | [7] 0.155 | [8] 0.0768 | [13] 0.209 | [14] 0.0714 | [15] 0.169 | [16] 0.0595

CCCCCCCCCCCCCCCC[N+](C)(C)C
inactive: [5] 0.115 | [6] 0.0557 | [13] 0.0896 | [14] -0.153

N#CC(=C(/N)Sc1ccccc1N)/C(C#N)=C(\N)Sc1ccccc1N
inactive: [7] 0.102 | [8] 0.0572 | [15] -0.0299 | [16] -0.0332

CC1=C(C(=O)O)N2C(=O)[C@@H](NC(=O)[C@H](N)c3ccc(O)cc3)[C@H]2SC1
inactive: [5] 0.162 | [6] 0.185 | [13] 0.197 | [14] 0.208

COc1cc(C)c2c(=O)cc(-c3ccccc3)oc2c1
inactive: [5] 0.164 | [6] 0.157 | [13] 0.235 | [14] 0.304

CC(C)(Oc1ccc(C2CC2(Cl)Cl)cc1)C(=O)O (centres undefined)
inactive: [7] 0.159 | [8] 0.148 | [15] 0.0707 | [16] 0.11

CC(=O)NCCc1ccc(O)c(O)c1
inactive: [7] -0.0226 | [8] 0.0196 | [15] 0.0668 | [16] 0.105

O=P(O)(O)C(O)(Cc1cccnc1)P(=O)(O)O
inactive: [3] 0.00356 | [4] 0.0332 | [9] -0.0598 | [10] 0.0284 | [11] -0.00429 | [12] -0.0275 | [17] -0.0278 | [18] 0.0358 | [19] 0.00755 | [20] 0.0577 | [23] 0.0619 | [24] 0.00618

N[C@@H](Cc1ccc(F)cc1)C(=O)O
inactive: [7] 0.199 | [8] 0.131 | [15] 0.111 | [16] 0.0302

Nc1nccc2c1ncn2[C@@H]1O[C@H](CO)[C@@H](O)[C@H]1O
inactive: [7] 0.199 | [8] 0.0735 | [15] 0.0748 | [16] 0.125

Nc1ccc(N=Nc2ccccc2)c(N)n1
inactive: [5] 0.0928 | [6] 0.128 | [13] 0.205 | [14] 0.206

CC(C)=CCc1c(O)cc(C)oc1=O
inactive: [5] 0.0912 | [6] -0.0147 | [13] 0.109 | [14] -0.0401

O=C(O)c1cc(O)c(O)c(O)c1
inactive: [5] 0.0108 | [6] 0.0712 | [13] 0.053 | [14] 0.123

CCN(CC)C(=O)N1CCN(C)CC1
inactive: [1] 0.0545 | [2] 0.0535 | [5] 0.0595 | [6] 0.134 | [7] -0.00062 | [8] 0.14 | [13] 0.0995 | [14] 0.2 | [15] 0.119 | [16] 0.0298 | [21] 0.126 | [22] 0.125

Cn1cnc2c(NC3CCCC3)ncnc21
inactive: [7] 0.163 | [8] 0.111 | [15] 0.133 | [16] 0.108

Oc1cc(O)c2c(c1)O[C@H](c1cc(O)c(O)c(O)c1)[C@H](O)[C@H]2c1c(O)cc(O)c2c1O[C@H](c1cc(O)c(O)c(O)c1)[C@H](O)[C@H]2c1c(O)cc(O)c2c1O[C@H](c1cc(O)c(O)c(O)c1)[C@H](O)C2
inactive: [5] -0.0224 | [6] 0.066 | [13] 0.107 | [14] 0.0716

CCN(CCCc1ccccc1)CCCc1ccccc1
inactive: [5] 0.0709 | [6] 0.129 | [13] 0.11 | [14] 0.151

CCOC(=O)c1c(C)cc(O)c(C)c1O
inactive: [5] 0.117 | [6] 0.0649 | [13] 0.0865 | [14] 0.119

Clc1ccc(COC(Cn2ccnc2)c2ccc(Cl)cc2Cl)cc1 (centres undefined)
active: [23] -0.429

NC(=O)NO
inactive: [1] 0.198 | [2] 0.0401 | [3] 0.0434 | [4] -0.011 | [5] -0.0023 | [6] -0.0249 | [7] 0.143 | [8] 0.0451 | [9] 0.0507 | [10] 0.067 | [11] 0.0995 | [12] 0.0841 | [13] 0.136 | [14] 0.0792 | [15] 0.11 | [16] 0.0912 | [17] 0.0898 | [18] 0.0212 | [19] 0.00032 | [20] 0.0269 | [21] 0.147 | [22] 0.0856 | [23] 0.147 | [24] 0.101

Clc1ccccc1C(c1ccccc1)(c1ccccc1)n1ccnc1
inactive: [3] 0.121 | [4] 0.0866 | [5] 0.14 | [6] 0.136 | [7] 0.0798 | [8] 0.0728 | [9] 0.0878 | [10] 0.0769 | [11] 0.056 | [12] 0.0666 | [13] 0.208 | [14] 0.145 | [15] 0.0214 | [16] 0.0602 | [17] -0.00445 | [18] -0.01 | [19] 0.00659 | [20] 0.0692 | [23] -0.0612 | [24] 0.0839

N#C/C(=C\c1cc(Cl)cc(Cl)c1)c1cccnc1
inactive: 0.025 µM, library screen: screen1, EWS-FLI1 expression: high (no doxycycline) 0.0512 | 0.025 µM, library screen: screen1, EWS-FLI1 expression: low (doxycycline-induced shRNA knockdown) 0.0254 | [5] 0.126 | [6] 0.0849 | [13] 0.0839 | [14] 0.0837 | [25] -0.0133 | 25 µM, library screen: screen1, EWS-FLI1 expression: low (doxycycline-induced shRNA knockdown) 0.21

COc1cc(CC(=O)O)ccc1O
inactive: [7] 0.135 | [8] 0.0721 | [15] 0.111 | [16] 0.122

COc1c(OC)c2occc2c2oc(=O)ccc12
inactive: [5] 0.1 | [6] -0.00542 | [13] 0.166 | [14] 0.0421

CN1CCC[C@H]1c1cccnc1
inactive: [7] 0.141 | [8] 0.0551 | [15] 0.217 | [16] 0.147

CCCC(C(=O)OCCN(CC)CC)(c1ccccc1)c1ccccc1
inactive: [5] 0.0754 | [6] 0.00226 | [7] 0.129 | [8] 0.118 | [13] 0.0741 | [14] 0.137 | [15] 0.103 | [16] 0.0562

CN(C)c1ccc(/C=C2\C(=O)Nc3ccccc32)cc1
active: [7] -1.84 | [8] -0.565 | [13] -0.163 | [15] -2.61 | [16] -0.918 | [25] -0.158

CC(=O)OC(C)C[N+](C)(C)C (centres undefined)
inactive: [5] 0.0221 | [6] 0.019 | [7] 0.251 | [8] 0.192 | [13] 0.142 | [14] 0.0296 | [15] 0.148 | [16] 0.163

CCCCOc1ccc(CC(=O)NO)cc1
inactive: [5] 0.0397 | [6] 0.0519 | [13] 0.124 | [14] 0.116

C=CCc1ccccc1OCC(O)CNC(C)C (centres undefined)
inactive: [5] 0.0845 | [6] 0.135 | [8] 0.0871 | [13] 0.0928 | [14] 0.0547 | [15] 0.0869 | [16] 0.156
active: [7] -0.203

COc1ccc2c(c1)[C@@]1(C)CCC(=O)C[C@@H]1CC2
inactive: [5] 0.0574 | [6] 0.0238 | [13] 0.0895 | [14] 0.0859

Oc1c(Cl)cc(Cl)cc1Sc1cc(Cl)cc(Cl)c1O
inactive: [5] 0.0619 | [6] 0.103 | [13] 0.13 | [14] 0.141

Cc1ccc(O)c([C@H](CCN(C(C)C)C(C)C)c2ccccc2)c1
inactive: [3] 0.0223 | [4] 0.0884 | [5] 0.0284 | [6] 0.0425 | [9] -0.00678 | [10] 0.00909 | [11] -0.00772 | [12] 0.0528 | [13] 0.0568 | [14] 0.0269 | [17] 0.064 | [18] 0.0412 | [19] 0.0719 | [20] 0.0334 | [23] 0.0789 | [24] 0.0505

CCCCC[C@H](CC(=O)NO)C(=O)N[C@H](C(=O)N1CCC[C@H]1CO)C(C)C
inactive: [5] 0.083 | [6] 0.00168 | [7] 0.112 | [8] 0.105 | [13] 0.139 | [14] 0.0527 | [15] 0.0931 | [16] 0.109

CCCCCCCCCC(=O)N[C@@H](Cc1c[nH]c2ccccc12)C(=O)N[C@@H](CC(N)=O)C(=O)N[C@@H](CC(=O)O)C(=O)NC1C(=O)NCC(=O)N[C@@H](CCCN)C(=O)N[C@@H](CC(=O)O)C(=O)N[C@H](C)C(=O)N[C@@H](CC(=O)O)C(=O)NCC(=O)N[C@H](CO)C(=O)N[C@@H](C(C)CC(=O)O)C(=O)N[C@@H](CC(=O)c2ccccc2N)C(=O)OC1C (some centres undefined)
inactive: [3] -0.000338 | [4] -0.000608 | [9] 0.0186 | [10] 0.0343 | [11] 0.103 | [12] 0.0444 | [17] 0.0611 | [18] 0.0124 | [19] 0.0568 | [20] 0.116 | [23] -0.0118 | [24] -0.0633
